Here are results for 7 molecules from paper PMC7171306.

Amino acid sequences for entries named in this document (tags omitted).
UniProt P17918: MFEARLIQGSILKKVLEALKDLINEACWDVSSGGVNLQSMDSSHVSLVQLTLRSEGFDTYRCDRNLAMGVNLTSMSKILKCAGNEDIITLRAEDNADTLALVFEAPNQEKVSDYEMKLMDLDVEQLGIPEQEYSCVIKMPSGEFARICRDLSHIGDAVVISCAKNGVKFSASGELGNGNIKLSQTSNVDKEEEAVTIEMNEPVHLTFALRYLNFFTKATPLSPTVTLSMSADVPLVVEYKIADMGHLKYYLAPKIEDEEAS

For test [1], the target named is T1, MYC-STRA8 (1-393aa), Stimulated By Retinoic Acid Gene 8 (mouse) (UniProt P70278).
T1 sequence: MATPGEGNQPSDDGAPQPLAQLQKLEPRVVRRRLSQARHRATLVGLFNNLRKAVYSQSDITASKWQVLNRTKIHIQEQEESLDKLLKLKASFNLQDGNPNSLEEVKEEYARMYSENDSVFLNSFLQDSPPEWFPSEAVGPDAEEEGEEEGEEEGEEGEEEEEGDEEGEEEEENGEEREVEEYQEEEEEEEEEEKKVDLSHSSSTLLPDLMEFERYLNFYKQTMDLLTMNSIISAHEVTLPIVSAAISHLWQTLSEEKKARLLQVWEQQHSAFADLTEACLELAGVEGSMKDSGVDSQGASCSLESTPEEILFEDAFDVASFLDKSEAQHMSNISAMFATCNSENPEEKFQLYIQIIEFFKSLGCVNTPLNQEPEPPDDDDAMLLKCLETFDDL
Description: co-IP; HEK-293T cells co-transfected with pCMV-MYC and pCMV-HA constructs; lysate, 1~2 μg antibody 4 h at 4°C, protein G overnight (Roche immunoprecipitation kit), Western blot. On the technique in general: A western blot detects proteins with antibodies after separation by electrophoresis.

In test [2] the target is T1, MYC-STRA8 (1-393aa), Stimulated By Retinoic Acid Gene 8 (mouse). The test is described as above. This is another data set of the same source.
The target of test [3] is T2, MYC-STRA8 F1R1 (1aa-142aa) (mouse) (UniProt P70278).
T2 sequence: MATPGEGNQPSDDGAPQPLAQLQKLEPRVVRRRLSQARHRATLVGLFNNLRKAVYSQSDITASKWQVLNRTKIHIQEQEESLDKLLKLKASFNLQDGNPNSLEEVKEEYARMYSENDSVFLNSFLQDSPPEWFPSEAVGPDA
The description is as above.

The target of test [4] is T3, MYC-STRA8 F1R2 (1aa-193aa) (mouse) (UniProt P70278).
T3 sequence: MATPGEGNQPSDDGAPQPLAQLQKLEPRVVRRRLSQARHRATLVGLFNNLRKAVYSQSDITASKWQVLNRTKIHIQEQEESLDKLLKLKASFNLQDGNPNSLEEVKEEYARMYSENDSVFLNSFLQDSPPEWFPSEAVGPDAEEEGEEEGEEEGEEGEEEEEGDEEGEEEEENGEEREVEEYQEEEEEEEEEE
The test is described as above.

The target in test [5] is T4, endogenous STRA8 of F9 cells (mouse (endogenous in F9)) (UniProt P70278).
T4 sequence: T1 sequence
Description: co-IP; F9 cells which express endogenous STRA8; lysate, antibody and protein G (Roche immunoprecipitation kit), Western blot.

Where two headings read alike, the source gives them in different places. Results are given in words; binding and its absence hold for the method and conditions named. Binding seen in cells or lysates may run through a third protein. Some entries that bind do so weakly or less than the wild type. For some of these results: Where a sequence is shown, tags or fusion partners need not be part of it.

On to HA-PCNA (from UniProt P17918 1-261), for which the binding entry in test [1] is recorded as “binds”.

B1: HA-SETD8 F2R1 (214aa-350aa) (domain or fragment, UniProt Q2YDW7 214-349)
chain: GMKIDLIDGKGRGVIATKQFSRGDFVVEYHGDLIEITDAKKREALYVQDPSTGCYMYYFQYLSKTYCVDATQETNRLGRLINHSKCGNCQTKLHDIDGVPHLILIASRDIAAGEELLYDYGDRSKASIEAYPWLKH
Turning to B1, the binding result is given as “binds” in test [2], “no binding” in test [3] and “binds” in test [4].

B2: HA-SETD8 F2R3 (214aa-341aa) (domain or fragment, UniProt Q2YDW7 214-341)
chain: GMKIDLIDGKGRGVIATKQFSRGDFVVEYHGDLIEITDAKKREALYVQDPSTGCYMYYFQYLSKTYCVDATQETNRLGRLINHSKCGNCQTKLHDIDGVPHLILIASRDIAAGEELLYDYGDRSKASI
With B2, the binding result in test [2] is listed as “no binding”.

B3: HA-SETD8 F1R1 (1aa-350aa), lysine methyltransferase 5A (protein, UniProt Q2YDW7 1-349)
chain: MARGRKMCKPRAVEAAAAAVAATAPGPEMVEQRGPGRPRSDGENVFAGQSKIYAYMSPNKCSAMRSPLQEENSVAHHEVKCPGKPLAGIYRKREEKRNTGNVIRSAVKSDEQKSKDTRRGPLAPFPNQKSEAAEPPKTPPPSCDSTNVAVAKQALKKSLKGKQAPRKKSQGKTQQNRKLTDFYPVRRSSRKSKAELQSEERKKNELIESGKEEGMKIDLIDGKGRGVIATKQFSRGDFVVEYHGDLIEITDAKKREALYVQDPSTGCYMYYFQYLSKTYCVDATQETNRLGRLINHSKCGNCQTKLHDIDGVPHLILIASRDIAAGEELLYDYGDRSKASIEAYPWLKH
Turning to B3, the binding result in test [2], in test [3] and in test [4] was “binds” each time.

B4: SETD8 in F9 cells (protein, UniProt Q2YDW7 1-349)
chain: B3 chain
On to B4, for which the binding result in test [5] is “binds”.

B5: HA-SETD8 F3R2 (100aa-213aa) (domain or fragment, UniProt Q2YDW7 100-213)
chain: GNVIRSAVKSDEQKSKDTRRGPLAPFPNQKSEAAEPPKTPPPSCDSTNVAVAKQALKKSLKGKQAPRKKSQGKTQQNRKLTDFYPVRRSSRKSKAELQSEERKKNELIESGKEE
With B5, in test [2], the binding result is “no binding”.

B6: HA-SETD8 F1R2 (1aa-213aa) (domain or fragment, UniProt Q2YDW7 1-213)
chain: MARGRKMCKPRAVEAAAAAVAATAPGPEMVEQRGPGRPRSDGENVFAGQSKIYAYMSPNKCSAMRSPLQEENSVAHHEVKCPGKPLAGIYRKREEKRNTGNVIRSAVKSDEQKSKDTRRGPLAPFPNQKSEAAEPPKTPPPSCDSTNVAVAKQALKKSLKGKQAPRKKSQGKTQQNRKLTDFYPVRRSSRKSKAELQSEERKKNELIESGKEE
Regarding B6, the binding entry is listed as “binds” in test [2], “no binding” in test [3] and “binds” in test [4].
